Assay [1] has as its system A549-Dual. Briefly: NF-kB reporter (SEAP) activity, viability-corrected, relative to vehicle (fold change vs vehicle); higher = more activation of STING-IRF / NF-kB immune response reporter. To be noted: 10 µM.
The subject of assay [2] is A549-Dual. The assay can be described thus: ISRE reporter (Lucia luciferase) activity, viability-corrected, relative to vehicle (fold change vs vehicle); higher = more activation of STING-IRF / NF-kB immune response reporter. To be noted: 10 µM.

Some of the results follow. Single values of this set are uncertain. Values with irradiation are relative to irradiated vehicle.
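For NF-kB reporter (SEAP) activity, viability-corrected, relative to vehicle in this document: viability correction based on the alamar blue assay, with concentrations leaving 10% survival or less dropped.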

As to `O=C1c2c(O)cc(O)cc2OC(c2ccc(O)c(O)c2)C1O` (stereo not drawn) [Taxifolin (Dihydroquercetin)], the NF-kB reporter is 0.758 in the assay with A549-Dual [1] (irradiation: 8 Gy/4 fr) and 0.658 with A549-Dual [1] (irradiation: none). Also, the ISRE reporter worked out at 0.859 with A549-Dual [2] (irradiation: 8 Gy/4 fr) and 0.409 with A549-Dual [2] (irradiation: none).
As to `COCCCC/C(=N\OCCN)c1ccc(C(F)(F)F)cc1.O=C(O)/C=C\C(=O)O` [Fluvoxamine maleate], the NF-kB reporter in the assay on A549-Dual [1] (irradiation: 8 Gy/4 fr) turned out to be 0.751; in the assay on A549-Dual [1] (irradiation: none) it was 0.808. Further, the ISRE reporter in the assay with A549-Dual [2] (irradiation: 8 Gy/4 fr) was determined as 1.02; in the assay on A549-Dual [2] (irradiation: none), 0.981.
In the case of `Cc1cccc(Nc2ccncc2S(=O)(=O)NC(=O)NC(C)C)c1` [Torsemide], the NF-kB reporter in the assay with A549-Dual [1] (irradiation: 8 Gy/4 fr) is 0.785; in the assay on A549-Dual [1] (irradiation: none), 0.976. Besides, the results for the ISRE reporter in the assay on A549-Dual [2] (irradiation: 8 Gy/4 fr) and with A549-Dual [2] (irradiation: none) were 0.908 and 0.857, respectively.
Take `Cc1cc(=O)oc2cc(O)ccc12` [4-Methylumbelliferone (4-MU)]: the NF-kB reporter came to 0.911 in the assay with A549-Dual [1] (irradiation: 8 Gy/4 fr) and 0.906 with A549-Dual [1] (irradiation: none). The ISRE reporter is 0.893 in the assay on A549-Dual [2] (irradiation: 8 Gy/4 fr) and 0.842 in the assay on A549-Dual [2] (irradiation: none).
With `CC1CCc2c(N3CCC(O)CC3)c(F)cc3c(=O)c(C(=O)O)cn1c23` (stereo not drawn) [Nadifloxacin], the NF-kB reporter stood at 0.936 with A549-Dual [1] (irradiation: 8 Gy/4 fr) and 1.03 in the assay with A549-Dual [1] (irradiation: none). Also, the ISRE reporter in the assay with A549-Dual [2] (irradiation: 8 Gy/4 fr) was 0.715; with A549-Dual [2] (irradiation: none), 0.759.
On the same counts, the results for `Cl.OC(CCCN1CCCCC1)(c1ccccc1)c1ccccc1` [Diphenidol HCl] are 0.784, 1.3, 0.84 and 0.823.
For `CN(C/C=C/C#CC(C)(C)C)Cc1cccc2ccccc12.Cl` [Terbinafine HCl], the values for the NF-kB reporter with A549-Dual [1] (irradiation: 8 Gy/4 fr) and in the assay with A549-Dual [1] (irradiation: none) were 0.736 and 1.01, respectively. Also, the values for the ISRE reporter in the assay on A549-Dual [2] (irradiation: 8 Gy/4 fr) and with A549-Dual [2] (irradiation: none) were 0.976 and 0.861, respectively.
For `C/C=C1/C2C=C(C)CC1(N)c1ccc(=O)[nH]c1C2` (single isomer, unassigned; (-)) [(-)-Huperzine A (HupA)], in that order: 1, 1.14, 0.842 and 0.618.
`CC(OC1OCCN(Cc2nn(P(=O)(O)O)c(=O)[nH]2)C1c1ccc(F)cc1)c1cc(C(F)(F)F)cc(C(F)(F)F)c1.CNCC(O)C(O)C(O)C(O)CO.CNCC(O)C(O)C(O)C(O)CO` (stereo not drawn) [Fosaprepitant dimeglumine salt]: the NF-kB reporter in the assay on A549-Dual [1] (irradiation: 8 Gy/4 fr) was determined as 0.687; in the assay on A549-Dual [1] (irradiation: none), 0.712. Moreover, the ISRE reporter in the assay with A549-Dual [2] (irradiation: 8 Gy/4 fr) came to 0.571; in the assay on A549-Dual [2] (irradiation: none), 1.24.
With `Cc1cc2c(cc1S(N)(=O)=O)S(=O)(=O)CCC2` [Meticrane], the NF-kB reporter came out at 0.971 in the assay with A549-Dual [1] (irradiation: 8 Gy/4 fr) and 0.86 in the assay with A549-Dual [1] (irradiation: none). Besides, the ISRE reporter in the assay on A549-Dual [2] (irradiation: 8 Gy/4 fr) was 0.85; in the assay on A549-Dual [2] (irradiation: none), 0.694.
With `CC(CCC(=O)O)C1CCC2C3CCC4CC(O)CCC4(C)C3CC(O)C12C` (stereo not drawn) [Deoxycholic acid], the NF-kB reporter in the assay with A549-Dual [1] (irradiation: 8 Gy/4 fr) was determined as 1.06; in the assay on A549-Dual [1] (irradiation: none), 0.622. Also, the ISRE reporter in the assay on A549-Dual [2] (irradiation: 8 Gy/4 fr) was determined as 1.04; with A549-Dual [2] (irradiation: none) it was 0.709.
Take `CCC12CCCN3CCc4c(n(c5ccccc45)C(O)(C(=O)OC)C1)C32` (stereo not drawn) [Vincamine]: the NF-kB reporter worked out at 0.822 in the assay with A549-Dual [1] (irradiation: 8 Gy/4 fr) and 0.847 in the assay on A549-Dual [1] (irradiation: none). Besides, the ISRE reporter in the assay on A549-Dual [2] (irradiation: 8 Gy/4 fr) is 0.795; with A549-Dual [2] (irradiation: none), 0.701.
With `COC1(NC(=O)Cc2cccs2)C(=O)N2C(C(=O)[O-])=C(COC(N)=O)CSC21.[Na+]` (stereo not drawn) [Cefoxitin sodium], the NF-kB reporter was found to be 0.671 in the assay on A549-Dual [1] (irradiation: 8 Gy/4 fr) and 0.749 in the assay on A549-Dual [1] (irradiation: none). The results for the ISRE reporter in the assay with A549-Dual [2] (irradiation: 8 Gy/4 fr) and in the assay with A549-Dual [2] (irradiation: none) were 0.723 and 0.683, respectively.
On the same counts, the results for `Cl.NCCCC(N)(C(=O)O)C(F)F.O` (stereo not drawn) [Eflornithine hydrochloride hydrate] are 1.07, 0.872, 1.06 and 0.691.
As for `CC1(C)CCC2(C(=O)O)CCC3(C)C(=CCC4C5(C)CCC(O)C(C)(CO)C5CCC43C)C2C1` (stereo not drawn) [Hederagenin], the NF-kB reporter in the assay on A549-Dual [1] (irradiation: 8 Gy/4 fr) came out at 0.511; in the assay on A549-Dual [1] (irradiation: none) it was 0.646. In addition, the figures for the ISRE reporter with A549-Dual [2] (irradiation: 8 Gy/4 fr) and in the assay on A549-Dual [2] (irradiation: none) were 0.268 and 0.508, respectively.
Consider `Cl.O=C(O)c1cn(-c2ccc(F)cc2)c2cc(N3CCNCC3)c(F)cc2c1=O` [Sarafloxacin HCl], for which the NF-kB reporter with A549-Dual [1] (irradiation: 8 Gy/4 fr) came out at 0.95; in the assay on A549-Dual [1] (irradiation: none), 1.27. Further, the ISRE reporter was determined as 0.885 in the assay with A549-Dual [2] (irradiation: 8 Gy/4 fr) and 1.26 with A549-Dual [2] (irradiation: none).
Consider `CN(C)CCC(c1ccccc1)c1ccccn1.O=C(O)/C=C\C(=O)O` (stereo not drawn) [Pheniramine Maleate], for which the NF-kB reporter with A549-Dual [1] (irradiation: 8 Gy/4 fr) came to 0.862; in the assay on A549-Dual [1] (irradiation: none), 1.27. Further, the ISRE reporter came out at 0.987 with A549-Dual [2] (irradiation: 8 Gy/4 fr) and 1.11 with A549-Dual [2] (irradiation: none).
Regarding `NC(Cc1cc(I)c(Oc2ccc(O)c(I)c2)c(I)c1)C(=O)[O-].[Na+]` (stereo not drawn) [Liothyronine Sodium], the NF-kB reporter in the assay on A549-Dual [1] (irradiation: 8 Gy/4 fr) is 0.753; with A549-Dual [1] (irradiation: none) it was 1.22. Moreover, the ISRE reporter in the assay with A549-Dual [2] (irradiation: 8 Gy/4 fr) came to 0.517; in the assay with A549-Dual [2] (irradiation: none) it was 0.664.
As for `C=CC1CC1(NC(=O)C1CC(Oc2ncc(OC)c3ccc(Cl)cc23)CN1C(=O)C(NC(=O)OC(C)(C)C)C(C)(C)C)C(=O)NS(=O)(=O)C1CC1` (stereo not drawn) [Asunaprevir], the values for the NF-kB reporter in the assay on A549-Dual [1] (irradiation: 8 Gy/4 fr) and in the assay on A549-Dual [1] (irradiation: none) were 0.654 and 1.44, respectively. Moreover, the ISRE reporter with A549-Dual [2] (irradiation: 8 Gy/4 fr) came out at 0.686; with A549-Dual [2] (irradiation: none), 2.39.
With `COc1cc2c(cc1OC)C1Cc3ccc(OC)c(OC)c3CN1CC2` (stereo not drawn) [Tetrahydropalmatine], the NF-kB reporter was found to be 0.723 in the assay with A549-Dual [1] (irradiation: 8 Gy/4 fr) and 1.35 in the assay with A549-Dual [1] (irradiation: none). Besides, the ISRE reporter with A549-Dual [2] (irradiation: 8 Gy/4 fr) was 0.651; in the assay with A549-Dual [2] (irradiation: none), 0.715.
With `CCOc1ccc2c(c1)C(C)=CC(C)(C)N2` [Ethoxyquin], the NF-kB reporter turned out to be 0.914 with A549-Dual [1] (irradiation: 8 Gy/4 fr) and 0.996 in the assay on A549-Dual [1] (irradiation: none). In addition, the ISRE reporter in the assay on A549-Dual [2] (irradiation: 8 Gy/4 fr) worked out at 1.04; in the assay with A549-Dual [2] (irradiation: none) it was 0.946.
On to `Oc1ccc(Cl)c2cccnc12` [Cloxiquine], for which the NF-kB reporter came out at 0.957 with A549-Dual [1] (irradiation: 8 Gy/4 fr) and 1.37 in the assay with A549-Dual [1] (irradiation: none). The ISRE reporter in the assay on A549-Dual [2] (irradiation: 8 Gy/4 fr) is 0.153; with A549-Dual [2] (irradiation: none) it was 0.313.
Take `Cc1ccc(NC(=O)c2ccc(CN3CCN(C)CC3)cc2)cc1Nc1nccc(-c2cccnc2)n1` [Imatinib (STI571)]: the NF-kB reporter turned out to be 0.862 in the assay with A549-Dual [1] (irradiation: 8 Gy/4 fr) and 0.855 with A549-Dual [1] (irradiation: none). The values for the ISRE reporter with A549-Dual [2] (irradiation: 8 Gy/4 fr) and with A549-Dual [2] (irradiation: none) were 0.809 and 1.08, respectively.
For the molecule `CCOc1nc2cccc(C(=O)OCc3oc(=O)oc3C)c2n1Cc1ccc(-c2ccccc2-c2nc(=O)o[nH]2)cc1` [Azilsartan Medoxomil], the NF-kB reporter in the assay with A549-Dual [1] (irradiation: 8 Gy/4 fr) is 0.585; with A549-Dual [1] (irradiation: none) it was 1.06. The figures for the ISRE reporter in the assay on A549-Dual [2] (irradiation: 8 Gy/4 fr) and with A549-Dual [2] (irradiation: none) were 0.493 and 0.498, respectively.
On the same counts, the results for `CCCC1CC(C(=O)NC(C(C)Cl)C2OC(SC)C(OP(=O)(O)O)C(O)C2O)N(C)C1` (stereo not drawn) [Clindamycin Phosphate] are 0.788, 0.998, 0.863 and 1.02.
`CCCc1cc(C(N)=S)ccn1` [Protionamide]: the results for the NF-kB reporter in the assay with A549-Dual [1] (irradiation: 8 Gy/4 fr) and in the assay with A549-Dual [1] (irradiation: none) were 0.708 and 0.991, respectively. The ISRE reporter in the assay on A549-Dual [2] (irradiation: 8 Gy/4 fr) came to 0.689; with A549-Dual [2] (irradiation: none), 0.712.
`CC1(C(=O)[O-])CCC2(C)CCC3(C)C(=CC(=O)C4C5(C)CCC(OC(=O)CCC(=O)[O-])C(C)(C)C5CCC43C)C2C1.[Na+].[Na+]` (stereo not drawn) [Carbenoxolone Sodium]: the NF-kB reporter came out at 1.44 in the assay with A549-Dual [1] (irradiation: 8 Gy/4 fr) and 0.854 with A549-Dual [1] (irradiation: none). The ISRE reporter in the assay on A549-Dual [2] (irradiation: 8 Gy/4 fr) worked out at 1.33; with A549-Dual [2] (irradiation: none), 0.836.

Source of the values: the supplement of paper PMC9174493.
